Measured values: the supplement of paper PMC12217912
This is one part of the list. The full chains were built here from the parent and the listed change. Inactive controls read about 0.05.

B1: TEV protease; numbered along this chain (parent)
chain: MGESLFKGPRDYNPISSSICHLTNESDGHTTSLYGIGFGPFIITNKHLFRRNNGTLVVQSLHGVFKVKDTTTLQQHLVDGRDMIIIRMPKDFPPFPQKLKFREPQREERICLVTTNFQTKSMSSMVSDTSCTFPSGDGIFWKHWIQTKDGQCGSPLVSTRDGFIVGIHSASNFTNTNNYFTSVPKNFMELLTNQEAQQWVSGWRLNADSVLWGGHKVFMVKPEEPFQPVKEATQL

Variants of: B1
Test: raw area under fraction-flipped curve 0-4 h after induction (AUC4h, not background-subtracted), DNA-recorder readout of cleavage of the substrate (dimensionless); higher = more cleavage of the substrate by the protease variant
Conditions: temperature: 34 °C; time window: 0-4 h after rhamnose induction
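Further: Bxb1 expression induced with 0.2% (w/v) L-rhamnose at OD600 near 0.5, cultures sampled hourly, flipped fraction per protease–substrate barcode pair counted by paired-end Illumina sequencing.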

Row | Variant | area with substrate ENLFFQS | area with substrate ENLGFQS | area with substrate ENLHFQS | area with substrate ENLIFQS | area with substrate ENLKFQS | area with substrate ENLNFQS | area with substrate ENLPFQS | area with substrate ENLRFQS | area with substrate ENLSFQS | area with substrate ENLLFQS | area with substrate ENLQFQS | area with substrate ENLVFQS | area with substrate ENLMFQS | area with substrate ENLTFQS | area with substrate ENLWFQS | area with substrate ENLDFQS | area with substrate ENLEFQS
1 | E223N | 0.0808 | 0.0761 | 0.0586 | 0.0861 | 0.073 | 0.0721 | 0.0976 | 0.0569 | 0.0757 | – | – | – | – | – | – | – | –
2 | P9C | 0.0598 | – | 0.0776 | – | 0.0696 | 0.0677 | 0.0527 | – | 0.0777 | 0.0767 | 0.0711 | 0.0786 | – | – | – | – | –
3 | K185S | 0.0992 | – | 0.0614 | 0.078 | – | 0.0719 | – | 0.0637 | – | – | 0.0647 | – | 0.096 | 0.0468 | 0.0636 | – | –
4 | E195N | 0.087 | 0.0862 | 0.0667 | 0.169 | 0.081 | – | 0.0607 | 0.0753 | 0.0648 | 0.0832 | – | 0.084 | – | 0.0964 | – | 0.0494 | 0.065
5 | E195A | 0.0963 | 0.0648 | 0.0697 | – | – | 0.0639 | – | – | 0.0514 | 0.0808 | 0.0723 | – | – | – | – | 0.0573 | –
6 | I167V | 0.0816 | – | 0.0731 | – | 0.0805 | 0.0699 | – | 0.0521 | 0.0485 | – | – | 0.0691 | – | – | 0.0638 | – | –
7 | H76M | – | 0.0669 | 0.034 | 0.0808 | – | – | 0.0682 | 0.0733 | 0.0748 | 0.0649 | – | – | – | 0.0724 | – | – | –
8 | T174S | 0.0957 | 0.06 | – | 0.0856 | – | – | – | – | – | – | – | – | – | – | – | – | 0.0628
9 | T147R | 0.0607 | – | 0.0519 | – | 0.0616 | 0.0654 | – | 0.0549 | 0.0577 | 0.0652 | 0.0629 | – | 0.0602 | – | – | 0.045 | 0.0491
10 | T181F | 0.0621 | 0.0616 | 0.0537 | – | 0.0684 | – | 0.0513 | 0.0475 | – | 0.0462 | – | 0.0584 | 0.0439 | 0.0658 | 0.0429 | 0.0691 | 0.0574
11 | F173E | 0.0992 | 0.0691 | – | – | 0.0698 | 0.0674 | 0.0414 | – | 0.0579 | 0.0711 | 0.0774 | – | – | – | – | 0.0572 | –
12 | F187Y | 0.0639 | 0.0542 | 0.0572 | 0.073 | 0.0685 | 0.0613 | – | 0.0509 | 0.0522 | – | – | – | 0.0809 | – | – | 0.0531 | 0.0714
13 | Y179E | 0.0696 | 0.0575 | – | – | – | 0.0604 | – | – | – | – | – | – | 0.0648 | – | – | 0.0756 | –
14 | Y179A | 0.0571 | – | – | – | – | – | – | 0.0591 | 0.0638 | – | – | – | – | 0.0798 | – | 0.051 | 0.0536
15 | S171C | – | – | – | 0.0676 | 0.0765 | 0.067 | 0.0501 | 0.0622 | 0.0628 | – | 0.0677 | – | 0.0756 | – | 0.0943 | – | 0.0704
16 | A207K | 0.0693 | – | – | 0.0921 | – | 0.055 | 0.0706 | 0.0611 | 0.0676 | – | 0.0985 | – | – | – | 0.0554 | 0.0632 | 0.0678

Row | Variant | area with substrate ENLFFQS | area with substrate ENLGFQS | area with substrate ENLHFQS | area with substrate ENLIFQS | area with substrate ENLKFQS | area with substrate ENLNFQS | area with substrate ENLPFQS | area with substrate ENLRFQS | area with substrate ENLSFQS | area with substrate ENLLFQS | area with substrate ENLQFQS | area with substrate ENLVFQS | area with substrate ENLMFQS | area with substrate ENLTFQS | area with substrate ENLWFQS | area with substrate ENLDFQS | area with substrate ENLEFQS
17 | A207T | 0.0918 | 0.0648 | 0.0687 | – | 0.0686 | 0.0768 | – | 0.0709 | 0.0577 | 0.0682 | 0.0651 | 0.0818 | 0.0653 | 0.0782 | 0.0914 | 0.0815 | –
18 | Q146V | 0.0907 | – | – | 0.102 | 0.078 | 0.0692 | 0.0508 | 0.0746 | 0.0735 | 0.064 | 0.0664 | 0.0903 | – | – | – | – | 0.0564
19 | V220E | 0.0895 | 0.0637 | 0.062 | 0.0825 | 0.0697 | 0.0593 | 0.0489 | 0.0874 | 0.0607 | – | 0.0365 | – | – | 0.0595 | – | 0.0637 | –
20 | A170Y | – | – | 0.0563 | 0.0492 | – | 0.0634 | 0.0596 | – | 0.0685 | 0.0646 | – | – | – | – | – | 0.0371 | –
21 | A170T | – | – | – | – | – | 0.0618 | – | – | – | – | – | 0.0642 | – | – | – | – | 0.0634
22 | N177I | – | 0.0655 | 0.0749 | 0.136 | 0.0878 | 0.0568 | – | 0.061 | – | – | – | – | – | – | 0.0709 | 0.0771 | –
23 | F226E | 0.0956 | 0.066 | – | 0.0951 | 0.0679 | 0.0609 | 0.0509 | – | 0.0769 | 0.0804 | 0.0788 | 0.0897 | – | – | – | 0.0705 | –
24 | E189C | 0.0655 | – | – | – | 0.0461 | 0.0789 | 0.0652 | – | 0.0632 | 0.0696 | – | 0.0682 | – | 0.0749 | 0.0542 | 0.0677 | 0.0665
25 | W212G | 0.0628 | – | – | 0.0661 | 0.0599 | 0.0675 | 0.0568 | – | 0.0671 | 0.0661 | 0.0597 | 0.0629 | – | – | 0.053 | 0.0782 | –
26 | V229K | 0.0989 | – | 0.0754 | – | – | 0.0706 | 0.0444 | – | 0.0583 | 0.0766 | 0.0777 | – | – | – | – | 0.0599 | 0.0588
27 | D79F | – | 0.073 | 0.0637 | 0.0676 | 0.0604 | 0.0754 | – | 0.0692 | – | 0.0401 | – | – | – | 0.0525 | 0.0644 | – | 0.0565
28 | I15M | 0.066 | – | 0.0722 | 0.0734 | – | 0.055 | 0.0879 | – | 0.0653 | 0.07 | 0.0624 | – | 0.0797 | – | – | – | 0.0439
29 | K221S | 0.0643 | 0.0601 | 0.0575 | – | 0.0782 | 0.0627 | – | – | 0.0669 | – | – | 0.076 | – | 0.056 | – | 0.0612 | –
30 | L205H | – | – | 0.0621 | – | – | 0.0894 | – | 0.0993 | – | – | – | – | – | – | – | 0.0657 | –
31 | K148C | 0.102 | 0.0505 | 0.073 | 0.0619 | 0.0698 | 0.0648 | 0.0758 | 0.0816 | 0.0436 | 0.0063 | 0.0717 | 0.0794 | 0.0734 | – | 0.0376 | 0.0633 | –
32 | L156R | 0.0536 | 0.0378 | 0.0511 | – | 0.0507 | – | 0.0492 | – | 0.0582 | – | – | 0.0562 | 0.0714 | 0.0506 | – | 0.0327 | –
